# Laboratory results as given in PubChem BioAssay AID686978 (National Center for Advancing Translational Sciences (NCATS), 2013).
# Among all 420,000 compounds or so, about 64,000 (15%) were called active. Inconclusive means that the source gave no clear call. Such entries were picked first, then a sample of the others. Calls follow the shape of the dose curve; as a rule, active = well fitted inhibition curve with a large enough effect; inconclusive = small, poorly fitted or top-dose-only effect; inactive = flat fitted curve, though single readings scatter. No potency is given beside an inconclusive call; the fits are too rough.
# Assay: qHTS for Inhibitors of human tyrosyl-DNA phosphodiesterase 1 (TDP1): qHTS in cells in absence of CPT; also: nearly all actives have a fitted effect of over 55% in size
# Conditions: DT40 Tdp1-/- hTDP1 cells, no CPT, ATP luminescence, 48 h; activity change, negative = growth inhibition: at 46.2 µM (top of the series) unless noted
# In short: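 DT40 Tdp1-/-;hTDP1 cells, no CPT (DMSO vehicle only), 400 cells/well; compounds pin-transferred; ≥48 hr, 37 °C; CellTiter-Glo 30 min RT dark, luminescence read.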
# % is scaled to controls: 0 for no effect and ±100 for the full control effect; potency is read from the fitted curve at half-maximal effect; tags tell the direction and shape of the fitted curve.
SMILES,Potency,"activity change, negative = growth inhibition"
N#Cc1c(-c2ccccc2)c(-c2ccccc2)nn(CC(=O)NNC(=O)Nc2ccc(Cl)cc2)c1=O,active: 23.1 µM,
c1cc(-c2noc(CC3CCCCC3)n2)ccn1,"inconclusive [inhibitor, single point]",
COC(=O)c1ccccc1CC1Cc2cc3c(cc2C1=O)CCC3 (stereo not given),"inconclusive [inhibitor, single point]",
CCN(CC)CCNC(=O)C(=O)Nc1cc2c3c(c1)CC(=O)N3CCC2,inactive,
COCCNC(=O)c1cnn(-c2cccc(C)c2)c1-n1cccc1,"inconclusive [inhibitor, single point]",
CC(C)OC(=O)c1ccc(NC(=O)c2cncc(Br)c2)cc1,"inconclusive [inhibitor, single point]",
COc1ccc(/C=N/Nc2cc(N3CCOCC3)ncn2)c(OC)c1,inactive,
COc1ccc(C(=O)NNc2ncnc3c2cnn3-c2ccc(C)cc2C)cc1,"inconclusive [inhibitor, single point]",
CN(C(=O)c1ccc2c(c1)N(Cc1ccc(F)cc1)C(=O)c1ccccc1S2(=O)=O)C1CCCCC1,active: 16.4 µM,
CC(=O)c1ccc(NC(=O)C(C)N2CCN(C/C=C/c3ccccc3)CC2)cc1 (stereo not given),"inconclusive [inhibitor, single point]",
CCOCCCn1c(=N)c(C(=O)NC(C)c2ccccc2)cc2c(=O)n3cccc(C)c3nc21 (stereo not given),active: 16.4 µM,
CCOC(=O)C1=C(CC)Nc2ccccc2N/C1=N\S(=O)(=O)c1cc(Br)ccc1Br,"inconclusive [inhibitor, single point]",
CCSC1OC(C(COC(C)=O)OC(C)=O)C(OC(C)=O)C1NC(C)=S (stereo not given),inactive,
CCC(C)NCC(=O)Nc1ccc(S(N)(=O)=O)cc1 (stereo not given),inactive,
Cc1ccc(C(=O)COC(=O)c2cn(-c3ccccc3)nc2-c2ccccc2)cc1[N+](=O)[O-],,inconclusive: -31.5% [inhibitor]
CC(=O)NC12CC3CC(C1)CC(C(=O)N1CCN(S(=O)(=O)c4cccc(C(F)(F)F)c4)CC1)(C3)C2,"inconclusive [inhibitor, single point]",
Cc1ccc(C(CNC(=O)Nc2cccc(C)c2)N2CCN(C)CC2)cc1 (stereo not given),inactive,
C[C@H](O)[C@@H]1C(=O)N2CCc3ccc(-c4cccc(F)c4)cc3[C@@H]2C[C@@H]1N(C)C(=O)C(C)(C)C,"inconclusive [inhibitor, single point]",
C=CCNc1nc(N)c([N+](=O)[O-])c(NCCO)n1,inactive,
Cc1ccc2occ(CC(=O)Nc3ccc(Cl)c(C(F)(F)F)c3)c2c1,active: 16.4 µM,
Cn1c(N/N=C2\CCCc3ccccc32)nc2c1c(=O)n(Cc1ccccc1)c(=O)n2C,"inconclusive [inhibitor, single point]",
COc1ccc(C(=O)NC(Nc2ccccc2)C(Cl)(Cl)Cl)cc1 (stereo not given),"inconclusive [inhibitor, partial curve]",
COc1ccc(-c2nnc(SCc3c(C)noc3C)o2)cc1,,inconclusive: -34.2% [inhibitor]
Cc1ccc(C)c(N2N=C(C(=O)OCc3nnc(-c4ccccc4Br)o3)CCC2=O)c1,inactive,

SMILES,Potency,"activity change, negative = growth inhibition"
CCCn1c(=S)[nH]c2cc(C(=O)NCc3ccccc3OC)ccc2c1=O,"inconclusive [inhibitor, single point]",
Cc1sc2nc(CSc3nc4ccccc4c(=O)n3CCCN3CCOCC3)[nH]c(=O)c2c1C,"inconclusive [inhibitor, single point]",
O=c1oc2ccc(Cl)cc2nc1/C=C(\O)c1cccs1,inactive,
COc1cccc(CNCc2ccccc2OC)c1,inactive,
CC(=O)N1CCC[C@H]1C(=O)NCC1Cc2cc(C)cc(-c3ccc(Cl)cc3)c2O1 (stereo not given in full),inactive,
C=CCNc1nc(Nc2ccc([N+](=O)[O-])cc2)nc(OCC)n1,"inconclusive [inhibitor, partial curve]",
O=C(c1ccc(CNS(=O)(=O)c2cccc(Cl)c2)cc1)N1CCCC1,inactive,
Cc1cc(CNC(=O)C2(C(F)(F)F)C/C(=C\Cc3ccccc3)CCCO2)nn1C (stereo not given),"inconclusive [inhibitor, single point]",
COc1ccc2[nH]c(C(=O)NCc3ccc4c(c3)OCO4)cc2c1,"inconclusive [inhibitor, single point]",
CCOc1ccc(NC(=O)c2ccc(NC(=S)NC3CCCCC3)cc2)cc1,"inconclusive [inhibitor, single point]",
c1ccc(-c2nnc(N3CCN(c4ccccc4)CC3)nc2-c2ccccc2)cc1,"inconclusive [inhibitor, single point]",
COC(=O)c1cc2c(C)[nH]c(C)c2cc(C(=O)OC)c1=O,active: 6.51 µM,
COc1ncc2nc(CCc3ccccc3)c(=O)n(C)c2n1,"inconclusive [inhibitor, single point]",
Fc1cccc(-c2nnn3c2nc(NCc2ccc4c(c2)OCO4)c2ccccc23)c1,,inconclusive: -26.8% [inhibitor]
CCOC(=O)N1CCN(C(=O)CSc2nc(C)nc3c2c(=O)n(C)c(=O)n3C)CC1,inactive,
N=c1c2c(ncn1Cc1ccco1)Oc1c(ccc3ccccc13)C2c1ccccc1 (stereo not given),"inconclusive [inhibitor, single point]",
CN(CC(=O)Nc1ccc(F)c(F)c1F)C(=O)C1(c2ccccc2)CC1,inactive,
Cc1ccc(S(=O)(=O)N2[C@@H](CCO)OC[C@H]2C(C)C)cc1,"inconclusive [inhibitor, single point]",
CCOC(=O)Cn1c(=O)oc2cc(S(=O)(=O)NC(C)c3ccccc3)ccc21 (stereo not given),"inconclusive [inhibitor, single point]",
COC(=O)C1CSC2c3ccccc3C(=O)N12 (stereo not given),"inconclusive [inhibitor, single point]",
O=S(=O)(NCC(c1cccnc1)N1CCN(Cc2ccccc2)CC1)c1ccc(Cl)cc1 (stereo not given),"inconclusive [inhibitor, single point]",
O=C(COC(=O)[C@@H]1CC(O)CN1S(=O)(=O)c1ccccc1[N+](=O)[O-])Nc1ccc2ccccc2c1 (stereo not given in full),inactive,
CCc1nc2nc(C)c(NS(=O)(=O)c3ccc(C)c(C)c3)c(=O)n2[nH]1,inactive,
CCCCOc1ncnc2c1[nH]c1ccc(OC)cc12,"inconclusive [inhibitor, partial curve]",

SMILES,Potency,"activity change, negative = growth inhibition"
COc1ccccc1N1CCN(C2CCCN(C(=O)c3cc(C4CC4)on3)C2)CC1 (stereo not given),inactive,
COc1ccc(-c2nc3n(c2C)Cc2ccccc2-3)cc1,"inconclusive [inhibitor, single point]",
CC(C)NC(=O)/C(=C/c1cn(-c2ccccc2)nc1-c1cccc([N+](=O)[O-])c1)NC(=O)c1ccccc1,"inconclusive [inhibitor, single point]",
COC(=O)c1nc2n(n1)C(c1cc(OC)ccc1OC)C=C(c1ccc(Br)cc1)N2 (stereo not given),"inconclusive [inhibitor, single point]",
CCCC(O)(CCC)C(=O)NNc1ccc(C)cc1,inactive,
COC(=O)C1=CO[C@@H](OC2OC(CO)C(O)C(O)C2O)[C@@H]2C(CO)=CC[C@H]12 (stereo not given in full),inactive,
CCc1ccc(CN(C(=O)Nc2cccc(Cl)c2)c2ccccn2)cc1,"inconclusive [inhibitor, single point]",
Cc1sc(NC(=S)Nc2ccc(F)cc2)c(C(N)=O)c1C,inactive,
Oc1ccc(Br)cc1CNc1cnc2ccccc2c1,"inconclusive [inhibitor, partial curve, poor fit]",
Clc1cccc(-c2ccc(CNCCCN3CCOCC3)o2)c1,"inconclusive [inhibitor, single point]",
COC[C@H](c1ccc(C(F)(F)F)cc1)N1CCN(C2(C)CCN(C(=O)c3c(C)ncnc3C)CC2)C[C@H]1C,"inconclusive [inhibitor, single point]",
O=C(Nc1ccc(Nc2ccncc2)cc1)c1ccc(Nc2ccnc3ccc([N+](=O)[O-])cc23)cc1,inactive,
COc1ccc(-c2nc(NC(C)=O)sc2-c2ccccc2)cc1,"inconclusive [inhibitor, single point]",
CC12CCC(C(S(=O)(=O)Nc3ccccc3)C1=O)C2(C)C (stereo not given),inactive,
O=[N+]([O-])c1cc([N+](=O)[O-])c2nonc2c1Nc1ccc(O)cc1,active: 20.6 µM,
CCOc1ccc(N(C)S(=O)(=O)c2ccc3[nH]cc(C(=O)NCC4CCCO4)c(=O)c3c2)cc1 (stereo not given),"inconclusive [inhibitor, partial curve]",
O=C(NC1CCCCCC1)c1cc(-c2ccccn2)nc2ccccc12,"inconclusive [inhibitor, single point]",
O=C(c1ccccc1F)N1c2nc(-c3ccco3)nn2C2(CCCCC2)[C@@H]2CCCC[C@@H]21,active: 18.4 µM,
CCOC(=O)N/N=C(\C)c1ccc(C)c([N+](=O)[O-])c1,"inconclusive [inhibitor, partial curve]",
Cc1c(Cl)cccc1NS(=O)(=O)c1ccc(NS(=O)(=O)c2ccc3c(c2)OCCO3)cc1,inactive,
Nc1nc2cc3ccccc3cc2[nH]c1=O,,inconclusive: -34.5% [inhibitor]
COc1ccc(Cl)cc1NC(=O)c1cnc(N2CCCCC2)c2ccccc12,"inconclusive [inhibitor, full curve, poor fit]",
